Source: article PMC10726135
The list shows a part of the results. At the low end of the ranking the order means little. The protein was read in a cell extract, so binding may be indirect.

Each sequence was assayed against T1, HNF4alpha2 (COS-7 nuclear extract) (UniProt P41235) (assay: protein-binding microarray). Settings: COS-7 nuclear extract on double-stranded Agilent 4x180k PBM; binding buffer, salt, pH and temperature not given; high values mean tight binding; double strand, one strand shown; sequences stand for … in …GCCTAGGGAGATTAGAGTATCGGTCGA.
T1 sequence: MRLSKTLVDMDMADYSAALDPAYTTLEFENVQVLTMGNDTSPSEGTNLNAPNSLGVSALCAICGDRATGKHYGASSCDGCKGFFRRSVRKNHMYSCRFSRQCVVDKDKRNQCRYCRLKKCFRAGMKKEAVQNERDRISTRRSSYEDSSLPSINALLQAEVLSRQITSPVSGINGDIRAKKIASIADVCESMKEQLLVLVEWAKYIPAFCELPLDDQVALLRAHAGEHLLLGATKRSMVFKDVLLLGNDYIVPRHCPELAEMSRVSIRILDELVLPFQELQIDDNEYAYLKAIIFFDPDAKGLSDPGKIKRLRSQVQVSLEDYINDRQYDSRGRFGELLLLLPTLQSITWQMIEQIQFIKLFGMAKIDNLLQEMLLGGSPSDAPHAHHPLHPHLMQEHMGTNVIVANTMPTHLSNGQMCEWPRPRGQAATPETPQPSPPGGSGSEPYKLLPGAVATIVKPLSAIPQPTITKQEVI

| Sequence | binding signal (log2 normalized intensity) |
| --- | --- |
| CGGGTTCTGCGCAGGGAGGAGCGCATCGGG | -1.18 |
| CTCTCCCAGTGGAATGCAAATATAGAAATA | 0.784 |
| CAGTACTGAAACATGCCTATGACCGAGGGT | 0.809 |
| GTTAAAGTCCGTTACAGACAGGCAGCCCCT | -1.02 |
| AAGGCCACAGCTCAGATCACAAAAGATGGA | -1.13 |
| CCCCAAAGGCTCTCTGTTGACCACCTGCCC | 2.01 |
| GGAGTCAAGCAAACACACTTGCTCTAATCC | -1.07 |
| CTCCGCTAAGTGGCTCGACAACGATTTGGG | -1.06 |
| GTAAATTCTTGAGCAGTCACTGGGAGATAT | -0.32 |
| ATGACAAAGGTGAGAGAGCATCCAGATAAA | -0.979 |
| CAGAGCACAGCAGGGCAGGGTATGCCTGAC | -0.935 |
| ATGACTCCAAAGTTCAAACTCTGAAAGCAC | 2.34 |
| GACACTGCTCTCTCCAGGGGAGGGTGACCA | 0.276 |
| GTCTGACAGATAAGATTTGGAAAATATTGC | -1.04 |
| TAACACCAGATAAACAGAAGAAAGGGGCTA | -1.12 |
| GAAGCCACAGAAGTCTTTCCCTGCCAGTTC | -1.16 |
| GCCCAGTCAAACCCCGCGCTCCAGGCATGG | -0.783 |
| ATGTGTTAGGCAAGCAAACTGCAAATACAG | -0.697 |
| GAGTCTGTTGTCTAACATTTTTGACCTTCA | 4.09 |
| GCCCCATAACCACCATTAGACTCTGCCCTC | 4.41 |
| GCCGGCGCAGCCGCGCTCCGCCCCGTTCCC | 2.19 |
| CTCTTACAACGAGGTGCCAGAAACCTGACT | -1.02 |
| TATCATACTCAGCTAATCTAGAGACACTAT | -1.25 |
| CTGTGGATAGCTCAGGGATTAACGACTCAT | -0.792 |
| TGTTTGCCTCTCAGCTCATTCAAAGTCCAA | 3.44 |

| Sequence | binding signal (log2 normalized intensity) |
| --- | --- |
| AGGTTTCCACTGATAAAGTTCTTTTGTGTG | 1.63 |
| GGCAGAGTTGTTTGCAGAGGGAAAGCGAGA | -1.12 |
| TCATGACAAAGAAATGTAACCTTTGGCCAA | 6.62 |
| CCTGACTCAAGAAAGGATCTCACCCAAACC | -1.31 |
| GGAACTGTCCACCAAGGAGGTGCTGACAGG | -1.07 |
| TTCCTGGCAGCCAGCTGGTTTGCCTCTCTT | -1.17 |
| CTGGCCTTCCTGGCCCTAGCTGGGTTTTTC | -1.11 |
| TGAGATTTTGCTCAACAAATATTAGCTGTT | -0.795 |
| TGTCCATGGTGACCATGTGATGTGAAGAGT | 0.264 |
| CCTCCCCCCTTCTGTTTCCAGAAATCTGAC | 2.6 |
| ATGTTCCTTATCAGAGAGGCCTCACAGCCT | -1.15 |
| TCATAAAGAACAGTTATTCTTAGCTTTCCT | -0.862 |
| CTCCACCTACGCTACGCACCAGGCATACTC | -1.26 |
| ACATTCCAGGACCTTTGCTCATGTCCTCTT | 2.5 |
| AGATAACAAACTTGATTGGGTATCAAGGGT | -0.836 |
| TCCCATCCCCAGAGCCCCCTTGATGCATCA | 4.64 |
| CTGCAAAGAAGTCAAACTTTGGACCCACTG | 5.97 |
| TCGAGCAAGGTTCAGCACATTTATGAGGCC | 0.497 |
| GGGGACCTTTGGCCTTTACCTGTTACTTAT | 3.57 |
| TGTCACCCAGCCAGAATTCTCCCTGCAGTC | -1.12 |
| CTCAAGCTTCAGGAGTCCACTGTGTTCTTG | 1.67 |
| GCGCCAGGCTGGGGGCAGAGTTCACCCCAT | 3.34 |
| TGAAATTTGGCCTGCTGAGCCCAATCTAGC | -1.2 |
| AGATAGTGACGGAGGTGACCTTTGGTTGTC | 5.52 |
| GCGCGGGCAGGTTGCCCTTTCGGTGGGACT | 2.7 |

| Sequence | binding signal (log2 normalized intensity) |
| --- | --- |
| GCAAGTCGAGCAAGGTTCAGCACATTTATG | 0.771 |
| TGAGACGCAAGCATATCTCTAGATCTCAGT | -1.05 |
| CTGGTGTGAGGTCAGTTGATAAACAGATAA | 1.45 |
| TGGTGTAAGCACTTGTGGTATGTTTGGATT | 2.41 |
| GTGGGTGCCAAACAAAAAGGGCAAAGGTCA | 8.12 |
| AAAGTTTCACTTTCTCTTATAGCTCAACCC | 0.711 |
| GGCCTGCATGACTACATTCTTTGAAGACTA | -0.971 |
| AGGTGCTGCCTTGGAGGTGAGGGTTACAGG | 0.356 |
| AGCACGGCCAGGATTAACCACAGAAATGCC | -1.09 |
| GGAGGGGTAAGGGTGGGGGTGGGGAGGATA | -1.13 |
| AGCCTTATCAGTATCAATGAGATCTCCCCA | 2.28 |
| TGTAACTGTAACTATATTGACCACCTCCTC | 1.76 |
| GAGTCTTAGGGAGGGGCCAGGACAAAGGTC | 5.72 |
| TGAGTTATTGGAAGAATGGAATTGCCATTG | 1.29 |
| GCAAGTAGAGCTGCTTACATTTTGCTCTGT | -0.121 |
| TGAGAGAGCATCCAGATAAAGCTGAAGAAA | -0.814 |
| GTGAGCCACCACGCCCGGCCAAAGACCACA | -1.03 |
| AGCAATTTAGCAGCACCATCCTACAGGGTA | -1.15 |
| AGGGGAAAAAGGACTCTGGGAAGATTAAGG | -1.1 |
| TGATAGTCTGCTACCATCAGATAAGCTCAG | -1.07 |
| TAGAATCTGCAGCCCCTTTTGGAATCCCCA | 4.05 |
| GAGGGTAAATTCCTTCTTTCTCTCTCCCTT | 1.48 |
| AGTCCAACTTCTGCAGGCACCTGGCTCGAC | -1.08 |
| CTTAATTTTCTCCTTTCCTCCTATGTCAAT | 1.51 |
| CTCATAGCTCCAGAGCCACCGCTACCACAC | -1.13 |

| Sequence | binding signal (log2 normalized intensity) |
| --- | --- |
| AGGCTCCCTGGCCACAGGAATGTGACCTTC | 5.67 |
| AGGGAGGTGATTGGTGAGTCTTAGGGAGGG | -1.19 |
| CCCTCCCCCTGCATGAACCTTTGCTCCCTG | 5.48 |
| AGGGCCCTTCACTATTTTCAAAGGTCAACA | 3.49 |
| GGTTGAATTTCAGAGGGAAGAGGAAGCATC | -0.981 |
| GAATGCCTAGGGGGAAGCCCCTGCTTCCGG | -1.08 |
| CAGGCAACCAAGGGTACACACCGTTAGCCA | -1.08 |
| CACTGTATCAGGGAGATAGTCTGAGAGTCA | -1.11 |
| AACTTGAAGCAGGCAGGCAGCTTCCAGGTG | -1.23 |
| CAAAGTGCGACAGGGAGATTTCCTGGGAGA | -1.28 |
| ACTCTAAAGGGAATAACCTTTGAGCTGAGT | 4.73 |
| AAGGCTGCAAGCAAACCTGCCCTTTGCTCC | 5.57 |
| TTCTGCCCCTTGCTCCTGCTTGCTGGCTTT | 1.2 |
| ACAAGTGTGATTTTTAGATAGTGACTTGAA | 0.858 |
| CTGGGTTATGATCCTGGCTCTCCCACTTAT | 1.2 |
| AAAAGGGCAAAACTGTCACAAGAAAGGCAG | -1.13 |
| CACACCCCTGGGGAAGGCAGGTCTCTCTCA | -1.16 |
| TGCAGCCGAACCGGCACGGTTTCGTGGGGA | -1.01 |
| CTTTGTTAAAGCATATTTATTCAGGCCCAC | 0.83 |
| TAGGGCCTTGCTATGGAGTGGACTTTGGCT | 6.16 |
| GGGGAGGGCAGGGTCAGAACCTGCCCATGA | -1.06 |
| GACAGATCAGAGAGATTTTCACATGGAATG | -0.521 |
| TCTTGTTTGCTAAGTGAGAACACCGTGTAC | 1.63 |
| TCGTGATAGTGACCACCTGGTGGACCCAGC | 3.66 |
| CCCGCAGCCCAGTCTTGGCCCCACCGGTCA | 2.25 |

| Sequence | binding signal (log2 normalized intensity) |
| --- | --- |
| ATAAAGAACTCTAAGCAGCGAAGCTGTGTC | -1.02 |
| GTGTGTTTACATAACCTGCCCAAAGTGGGG | 0.748 |
| ACAAAACCTGTTTAGGATTAAACAAACAAG | -1.2 |
| ATGGTGGCCATTCTGATTTGATAAGATGTG | 0.774 |
| TTCTGCACCTGCCCTCAGGGAGCTCCAGCA | -0.952 |
| GAAAGACCTTTTCCCTCCCTCCCAGTACAA | 3.69 |
| AACCAGATGGCCCTCTCCAAGGCGGTGTGG | -1.1 |
| ACTTCAAAGCGCAGCGCGGGGCTCAAAGGC | -1.13 |
| TTCCTGCTCATGCAGCTGCTGCCCAAAGGT | -1.05 |
| TGTTCAAGACCAAAGGTCATGGCAACAGTT | 4.21 |
| ATGATTGACAGGTTATTTCAATTACAAAGC | 1.06 |
| GTGGGAGAAAGCTTTGGACTTTGGGCTGTG | 5.72 |
| AAGAATGGGCAGAAGTAGGATAAGGGTAGG | -1.08 |
| GGAATTTGGACTTCAGCCCAGGCTGATTAT | 3.75 |
| GGAAGTCCAACCTTTGCTCACTTGGGGGTG | 2.59 |
| TGGTCAAGGGTCAGTTTCTGAGAGTGGCAA | 2.22 |
| CCAATCTAGCAAAAATCCTGCCAAACCAGT | -1.16 |
| ACATACAGGGTCTAGCAGTGCAGCGGGGTC | 2.23 |
| CTAGCAATAACCACAAGGGGGGAGCACCTC | -0.927 |
| TAATTGCATTCTTTGATGTGCTGGGAGTCA | 0.736 |
| TCCTTTTATCTTACATGCCTTATCTGGTTC | 2 |
| ATCAAGGACTGGGCTGGAACACAAAGAAAG | -1.17 |
| GAGGTGACCCCAGGGCAAAGTGCATTGGAG | 3.81 |
| GCCAAAGGTCAGAGTTGAACCCTTGGGGCT | 3.69 |
| GCCAGAGAGATGTCAGCCCAAGATAACCTC | -1.09 |

| Sequence | binding signal (log2 normalized intensity) |
| --- | --- |
| AGGCAGGCAGCTTCCAGGTGACAGTTAGGT | -0.703 |
| AGGCCGGTTGGCCAGGTTCCTCCACCGTCA | -1.05 |
| ATTGATATCACCCTCCCTATCAGCTACTCA | 1.48 |
| TGAAAGTCTAAAGTTCAGTGAGATTAGGAA | 3.46 |
| TGTTATAGCTTTTAAAGAACTGGGCGAGCC | -0.887 |
| TGCTCCACCTTTGAAATCTCAAATAGCTGG | -0.982 |
| ACTGGTAACTAGGTTAATGTGAACAGACAG | 0.738 |
| CTGGGCCAAAGGGCATTCTGGAGTTTGGAA | 2.97 |
| GCCAAGGTACCCTGGCTTGTAATTCAAGAC | -0.599 |
| GAAGATAAAGTGTCTCCCTCTGCAGCAAAG | -1.14 |
| AGGTCAGGGAGTAGGTTTGATTTGTGAAAG | 0.942 |
| AACAAAATAATAGTTGACCTTTGAGAACCT | 4.28 |
| TACTGGGGGCCACCATATGTATGTGAAGCT | -1.17 |
| GCTCAGCGGTTACTTCGAGTACATTGTAAC | 1.1 |
| TTCCCACATTGCTCTCCCATAAGAATCCTT | 0.731 |
| GCGGATCCAACCTGTTCTTTTGAGCTGTGG | 0.848 |
| GTCTAGATGCTGGGCAGCTTGTGTGCGTTT | 1.56 |
| GGTGGTGAAAGTCAACAAGATTCCTTGAGC | -0.969 |
| GCAAAGGTCAGGAGTTCCATTTAGCTTCAG | 0.288 |
| TCAACCCCCACTTCCTGACTTGGCCTGAAC | 2.98 |
